Results published in the antibiotic and cytotoxicity screens of Wong et al. (2023).
Some of the results follow.

Columns and labels:
[1] = tested on: HSkMC (human skeletal muscle cells); assay: cytotoxicity call (relative viability < 0.9); conditions: 10 µM
[2] = tested on: HepG2; assay: cytotoxicity call (relative viability < 0.9); conditions: 10 µM
[3] = tested on: S. aureus RN4220; assay: growth inhibition call (relative growth <= 0.2); conditions: 50 µM

Row | Compound | cytotoxicity call [1] | cytotoxicity call [2] | growth inhibition call [3]
1 | C=CCOC[C@@H]1CN(C)Cc2nnn(C)c21 | inactive | inactive | inactive
2 | O=C(C[C@@H]1C[C@H]2c3cc(NC(=O)Cc4ccncc4)ccc3O[C@H]2[C@H](CO)O1)NCc1ccc2c(c1)OCO2 | inactive | inactive | inactive
3 | COc1ccc(NC(=O)N(C)C[C@H]2OCCCC[C@H](C)Oc3ccc(NC(=O)CCC(F)(F)F)cc3C(=O)N([C@@H](C)CO)C[C@@H]2C)cc1 | inactive | inactive | inactive
4 | C[C@@H]1CCCCO[C@H](CN(C)S(=O)(=O)c2cccs2)[C@@H](C)CN([C@@H](C)CO)C(=O)c2cc(NS(=O)(=O)c3ccc(Cl)cc3)ccc2O1 | inactive | inactive | inactive
5 | C[C@@H]1CN([C@@H](C)CO)C(=O)c2cc(NS(=O)(=O)c3ccc(Cl)cc3)ccc2O[C@@H]1CN(C)Cc1ccc(C(F)(F)F)cc1 | active | active | inactive
6 | C[C@H]1CN([C@@H](C)CO)C(=O)c2cc(NS(=O)(=O)c3cccs3)ccc2O[C@H]1CN(C)C(=O)Nc1cccc2ccccc12 | inactive | inactive | inactive
7 | NC(N)=Nc1nc(CSCCC(N)=NS(N)(=O)=O)cs1 | inactive | inactive | inactive
8 | C[C@H]1CCCCO[C@H](CN(C)C(=O)Nc2ccc3c(c2)OCO3)[C@@H](C)CN([C@@H](C)CO)C(=O)c2cc(NC(=O)c3ccccc3)ccc2O1 | inactive | inactive | inactive
9 | O=C(C[C@H]1C[C@@H]2c3cc(NC(=O)Nc4ccccc4)ccc3O[C@@H]2[C@@H](CO)O1)NCCN1CCCCC1 | inactive | inactive | inactive
10 | NC(=O)C1(N2CCCCC2)CCN(CCCC(=O)c2ccc(F)cc2)CC1 | inactive | inactive | inactive
11 | CCCC#Cc1cnc2c(c1)C(=O)N([C@@H](C)CO)C[C@H](C)[C@H](CN(C)C(=O)c1ccc3c(c1)OCO3)O2 | inactive | inactive | inactive
12 | C[C@@H]1CN([C@@H](C)CO)S(=O)(=O)c2ccc(C#CCN(C)C)cc2O[C@@H]1CN(C)Cc1ccccc1F | inactive | inactive | inactive
